Measurements from PubChem BioAssay (NCATS).
The inconclusive results got no clear call from the source; some entries with a clear call stand among them for comparison. For some of these results: Potencies beside an inconclusive call are fits to weak or partial responses and may not hold up. Activity calls are given as the source filed them. Unless noted, the call rests on the fitted dose curve; in most records, active means well fitted curve in either direction with a large enough effect (not every such curve was filed as active); inconclusive means small, poorly fitted or top-dose-only effect, or another doubt; inactive means flat fitted curve, though single readings scatter.

tested on: not listed separately; test: AP1 Signaling Pathway (AID 357); details: ME-180 (cervical carcinoma) AP-1-bla reporter, EGF-induced, beta-lactamase ratio, 5 h; at 17.2 µM (top of the series) unless noted;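 further: ME-180 reporter cells stimulated with EGF at its EC50 level; top concentration of the series differs between compounds; on the % scale 0 is the no-effect control and ±100 the full control effect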
Summary of the method: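 Beta-lactamase reporter under AP-1 response element, ME-180 background. Stimulus: EC50 EGF. Compound exposure 5 h, 37 °C. Detection: CCF4, 2.5 h RT, 460/530 nm. Values: AC50 from titration.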

Activity change, negative = inhibition, inconclusive:
COc1ccc(CNc2ncnc3ccc(-c4cccc(NS(C)(=O)=O)c4)cc23)c(OC)c1 -64.2% [inhibitor] [at 7.69 µM]
CCNc1ncc2nc(-c3cc(F)cc(F)c3)c(=O)n(CCOC)c2n1 31.6% [activator] [at 7.69 µM]
COc1cccc(-c2nccc(NCCc3c[nH]c4ccc(OC)cc34)n2)c1 -50.9% [inhibitor] [at 7.69 µM]
COc1cccc(-c2ccc3ncnc(N4CCOCC4)c3c2)c1 -40.7% [inhibitor] [at 7.69 µM]
COc1cccc(-c2nccc(NCc3ccccc3)n2)c1 -30.4% [inhibitor] [at 7.69 µM]
N#Cc1cccc(-c2nccc(NCc3cccnc3)n2)c1 -34.6% [inhibitor] [at 7.69 µM]
CN(C)c1ncnc2ccc(-c3ccoc3)cc12 -23.2% [inhibitor] [at 7.69 µM]
CC(=O)NCCNc1ncnc2ccc(-c3ccccc3Cl)cc12 37.7% [activator] [at 7.69 µM]
O=c1cnc2cnc(Oc3cccc(Cl)c3)nc2n1CCc1ccccc1 -34% [inhibitor] [at 7.69 µM]
COc1cccc(-c2ccc3ncnc(N(C)C)c3c2)c1 -34.2% [inhibitor] [at 7.69 µM]

Activity change, negative = inhibition, inactive:
CN(C)c1ccc(-c2ccc3ncnc(N(C)C)c3c2)cc1 -10.3% [at 7.69 µM]
COc1ncc2nc(-c3ccc(F)cc3)c(=O)n(Cc3cccs3)c2n1 -5.24% [at 7.69 µM]
COc1cccc(Cn2c(=O)cnc3cncnc32)c1 13.8% [at 7.69 µM]
COc1ccccc1CNc1cc(-c2c(C)noc2C)ncn1 14.8% [at 7.69 µM]

target: Cytochrome P450 1A2 (Homo sapiens) (UniProt P05177); test: p450-cyp1a2 (AID 410; calls by dose curve; further: potency means the concentration at half of the fitted maximal effect); details: recombinant CYP1A2, luciferin-ME demethylation, luminescence; series mostly up to 57 µM
Summary of the method: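 Read-out is luminescence from luciferin produced by CYP1A2 demethylation of Luciferin-ME (100uM, at Km). Detection reagent stopped the 60 min NADPH-dependent reaction; signals were normalized to 57 uM furafylline.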

Sequence of UniProt P05177 (P05177 whole entry, looked up): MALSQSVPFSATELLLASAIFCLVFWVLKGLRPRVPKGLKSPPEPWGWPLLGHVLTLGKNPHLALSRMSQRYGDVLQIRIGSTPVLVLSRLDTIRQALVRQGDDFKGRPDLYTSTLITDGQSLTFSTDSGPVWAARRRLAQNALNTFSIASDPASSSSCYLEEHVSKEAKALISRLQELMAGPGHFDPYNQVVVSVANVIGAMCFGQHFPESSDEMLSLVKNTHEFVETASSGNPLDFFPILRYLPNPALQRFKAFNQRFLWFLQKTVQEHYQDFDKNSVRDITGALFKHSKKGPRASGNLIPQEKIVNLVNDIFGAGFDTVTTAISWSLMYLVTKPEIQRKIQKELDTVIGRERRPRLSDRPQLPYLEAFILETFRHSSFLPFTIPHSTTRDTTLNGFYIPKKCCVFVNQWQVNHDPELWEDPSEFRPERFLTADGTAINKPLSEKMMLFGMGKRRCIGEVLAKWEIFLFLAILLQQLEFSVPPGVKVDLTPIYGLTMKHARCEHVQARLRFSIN

Potency, active:
CN(C)c1ncc2nc(-c3cccc(C#N)c3)c(=O)n(C[C@H]3CCCO3)c2n1 3.16 µM
COc1cccc(-c2ccc3ncnc(N4CCOCC4)c3c2)c1 1 µM
CN(C)c1ncnc2ccc(-c3ccoc3)cc12 0.794 µM
COc1ccc(-n2c(=O)cnc3cnc(N(C)C)nc32)cc1 5.01 µM
Cc1cnc(CNc2ncncc2-c2ccc3c(c2)OCO3)cn1 2 µM

Potency, inconclusive:
COc1ccc(-n2c(=O)cnc3cnc(OC)nc32)cc1 20 µM [decreasing]

tested on: not listed separately; test: NFAT Signaling Pathway (AID 444); details: Jurkat NFAT-bla M1, carbachol, beta-lactamase ratio, 5 h; at 17.2 µM (top of the series) unless noted;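 further: carbachol stimulus at about its EC50 of 1 µM final; on the % scale 0 is the no-effect control and ±100 the full control effect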
Summary of the method: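 Jurkat cells carrying an NFAT-driven β-lactamase reporter and co-transfected muscarinic M1 receptor were treated with compound plus carbachol (1 uM final, an EC50 level) for 5 h at 37 °C. CCF4 loading followed for 1 h at RT; 460/530 nm ratio gave %activity.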

Activity change, negative = inhibition, inconclusive:
COc1ccc(CNc2ncnc3ccc(-c4cccc(NS(C)(=O)=O)c4)cc23)c(OC)c1 49.4% [activator] [at 7.69 µM]
CCNc1ncc2nc(-c3cc(F)cc(F)c3)c(=O)n(CCOC)c2n1 68.4% [activator] [at 7.69 µM]
CN(Cc1ccco1)c1ncncc1-c1cccc(C#N)c1 -57.3% [inhibitor] [at 7.69 µM]
CN(C)c1ncc2nc(-c3cccc(C#N)c3)c(=O)n(C[C@H]3CCCO3)c2n1 46.7% [inhibitor] [at 7.69 µM]
COc1cccc(-c2ccc3ncnc(N4CCOCC4)c3c2)c1 39.6% [activator] [at 7.69 µM]
Cc1noc(C)c1-c1ccc2ncnc(NCc3cccs3)c2c1 -101% [inhibitor] [at 7.69 µM]
FC(F)(F)c1ccccc1-c1ccc2ncnc(NC3CC3)c2c1 41.4% [activator] [at 7.69 µM]
O=c1cnc2cnc(Oc3cccc(Cl)c3)nc2n1CCc1ccccc1 -57.2% [inhibitor] [at 7.69 µM]
Cc1noc(C)c1-c1ccc2ncnc(NCc3cccnc3)c2c1 -91.7% [inhibitor] [at 7.69 µM]
CN(C)c1ncc2nc(-c3cccs3)c(=O)n(Cc3cccs3)c2n1 -31.2% [inhibitor] [at 7.69 µM]
c1cncc(-c2nc(NCc3cccs3)c3ccccc3n2)c1 -30.6% [inhibitor] [at 7.69 µM]
CS(=O)(=O)Nc1cccc(-c2ccc3ncnc(NCCN4CCOCC4)c3c2)c1 32.1% [activator] [at 7.69 µM]
CC(=O)NCCNc1ncnc2ccc(-c3ccccc3C#N)cc12 37.2% [activator] [at 7.69 µM]

Activity change, negative = inhibition, inactive:
Cc1ccccc1-c1ccc2ncnc(NCc3cccnc3)c2c1 2.06% [at 7.69 µM]
CS(=O)(=O)Nc1cccc(-c2nc(-n3ccnc3)c3ccccc3n2)c1 4.67% [at 7.69 µM]
Cc1cnc(CNc2ncncc2-c2cccnc2)cn1 -0.272% [at 7.69 µM]
Cc1cnc(CNc2ncncc2-c2ccc3c(c2)OCO3)cn1 -2.24% [at 7.69 µM]
FC(F)(F)c1ccccc1-c1nccc(-n2ccnc2)n1 2.35% [at 7.69 µM]
c1csc(CNc2ncncc2-c2ccoc2)c1 3.52% [at 7.69 µM]
COCCn1c(=O)cnc2cnc(N3CCN(C)CC3)nc21 -29.3% [at 7.69 µM]
